Source: PubChem BioAssay AID1345083 (National Center for Advancing Translational Sciences (NCATS), 2018)
Screen size: about 94,000 compounds; about 6,200 (6.6%) were called active. The inconclusive results got no clear call from the source; some entries with a clear call stand among them for comparison. The call rests on the fitted dose curve; in most records, active means well fitted inhibition curve with a large enough effect; inconclusive means small, poorly fitted or top-dose-only effect; inactive means flat fitted curve, though single readings scatter. Potencies beside an inconclusive call are fits to weak or partial responses and may not hold up.
On the % scale 0 is the no-effect control and ±100 the full control effect; potency means the concentration at half of the fitted maximal effect; tags describe the fitted curve by direction and shape.

Test: Cytotoxic Profiling in HEK 293 Cell Line of Diverse Libraries Using Quantitative High-Throughput Screening; further: nearly all actives have a fitted effect of over 60% in size
Details: HEK 293 viability, ATP luminescence (CellTiter-Glo), 48-72 h; activity change, negative = cytotoxicity: at 115 µM (top of the series) unless noted; series mostly up to 115 µM
How it was run: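 Read-out: CellTiter-Glo ATP luminescence. Cells: HEK 293, 250 cells/well. Exposure: 48 or 72 hr, 37 degree Celsius.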
With `O=C(NC1CCN(c2cc(-c3cccs3)[nH]n2)C1)c1ccccc1` (stereo unspecified) the Potency was inconclusive: 89.1 µM [inhibitor, single point].
In the case of `O=C1CCC2(C(=O)NCCc3ccccc3)CCCC=C2N1c1ccccc1` (stereo unspecified), the Potency is reported as inconclusive: 79.4 µM [inhibitor, partial curve, poor fit].
With `FC(F)(F)c1cccc(Nc2ncc(-c3cccnc3)c3c2OCC3)c1` the Potency was inconclusive: 89.1 µM [inhibitor, partial curve].
In the case of `COc1ccc(-c2ccnc3nc(C4CCC4)nn23)cc1`, the Potency is reported as inconclusive: 17.8 µM [inhibitor, full curve].
For `Cc1cc(OCCN2CCOCC2)c(C)c2c1CC[C@@H]([C@H](C)C(=O)N1CCOCC1)C2`, the Potency was inconclusive: 50.1 µM [inhibitor, partial curve].
With `CC(=O)N1CCN([C@H]2[C@@H]3OC[C@@H](O3)[C@@H](NC(=O)Nc3ccccc3)[C@@H]2O)CC1` the “activity change, negative = cytotoxicity” value was inactive: 0.452% [at 172 µM].
For `Fc1ccccc1CNC[C@H]1Cn2cc(-c3ccccc3)nc2CO1`, the Potency was inconclusive: 112 µM [inhibitor, partial curve].
In the case of `O=C1N(C2CCCCC2)C[C@H]2CN(Cc3cccc(OC(F)(F)F)c3)CCN12`, the Potency is reported as inconclusive: 79.4 µM [inhibitor, partial curve, poor fit].
With `O=C(c1cc2n(n1)CC(c1ccc(Cl)cc1)OC2)N1CCN(c2ccccc2Cl)CC1` (stereo unspecified) the Potency was active: 28.2 µM.
In the case of `COCCOC(=O)C1=C(C)N=C2SC=C(CC(=O)N3CCOCC3)N2C1c1cccc(OC)c1` (stereo unspecified), the Potency is reported as inconclusive: 50.1 µM [inhibitor, partial curve, poor fit].
With `C[S+](=O)([O-])NCCn1ccc2cc(OC3CCN(C(=O)C4CCCC4)CC3)cnc21` the Potency was inconclusive: 100 µM [inhibitor, partial curve, poor fit].
For `Cn1cc(-c2cnc3[nH]cc(CC(=O)Nc4cccc(OC(F)(F)F)c4)c3c2)cn1`, the Potency was inconclusive: 63.1 µM [inhibitor, full curve].
In the case of `COc1cc(Cl)ccc1-c1cccc(COc2cnc3c(ccn3CC(=O)O)c2)c1`, the Potency is reported as inconclusive: 100 µM [inhibitor, partial curve, poor fit].
In the case of `O=C(C1CCCC1)N1CC2(CCN(Cc3ccc(Cl)cc3)CC2)Cc2ccccc21`, the Potency is reported as inconclusive: 50.1 µM [inhibitor, partial curve, poor fit].
In the case of `CCC(C(=O)NCCn1ccn2nc(-c3cccc(OC)c3)cc2c1=O)c1ccccc1` (stereo unspecified), the Potency is reported as inconclusive: 50.1 µM [inhibitor, partial curve, poor fit].
With `COCCNC(=O)[C@H]1C[C@H](Oc2ccccc2)CN1S(=O)(=O)c1ccc(OC)cc1` the Potency was inconclusive: 63.1 µM [inhibitor, partial curve, poor fit].
